Laboratory results: the antibiotic and cytotoxicity screens of Wong et al. (2023)
This is one part of the list.

system: HSkMC (human skeletal muscle cells); assay: cytotoxicity call (relative viability < 0.9); settings: 10 µM

Row | Structure (SMILES) | cytotoxicity call
1 | C[C@@H]1CN([C@H](C)CO)C(=O)c2cc(NC(=O)Nc3cccc4ccccc34)ccc2O[C@@H]1CN(C)CC1CCCCC1 | inactive
2 | C[C@@H]1CCCCO[C@@H](CN(C)C(=O)Cc2ccccc2)[C@@H](C)CN([C@H](C)CO)C(=O)c2cc(NC(=O)Cc3ccccc3)ccc2O1 | inactive
3 | O=C(CCCCCCC(=O)N/N=C/[C@H](O)[C@@H](O)[C@H](O[C@@H]1O[C@H](CO)[C@H](O)[C@H](O)[C@H]1O)[C@H](O)CO)NO | inactive
4 | COc1ccc(CN(C)C[C@H]2OCCCC[C@H](C)Oc3ccc(NC(=O)Nc4ccc5c(c4)OCO5)cc3C(=O)N([C@H](C)CO)C[C@@H]2C)cc1 | inactive
5 | O=C1c2ccccc2C(=O)c2c(NCCNCCO)ccc(NCCNCCO)c21 | active
6 | CC(C)CN1C(=O)C[C@@H](N2CCOCC2)C1=O | inactive
7 | Cc1noc(C)c1NC(=O)N(C)C[C@H]1Oc2ccc(NC(=O)CCCN(C)C)cc2C(=O)N([C@@H](C)CO)C[C@H]1C | inactive
8 | C[C@@H]1CCCCO[C@@H](CN(C)C(=O)Nc2ccc(F)cc2)[C@@H](C)CN([C@H](C)CO)C(=O)c2cc(NC(=O)Nc3ccc(F)cc3)ccc2O1 | inactive
9 | CCS(=O)(=O)N1CCOC[C@]2(CN(c3cnn(C)c3)C(=O)CO2)C1 | inactive
10 | CC(C)NCC(O)c1ccc(O)c(O)c1.Cl (stereo not given) | inactive
11 | Cc1ccc(S(=O)(=O)Nc2ccc3c(c2)C(=O)N([C@@H](C)CO)C[C@H](C)[C@H](CN(C)C(=O)Nc2ccccc2)OCCCC[C@H](C)O3)cc1 | inactive
12 | Cc1noc(C)c1S(=O)(=O)N(C)C[C@H]1OCCCC[C@@H](C)Oc2ccc(N(C)C)cc2C(=O)N([C@@H](C)CO)C[C@@H]1C | inactive
13 | COc1ccc(CNc2nc(N3CCCC3CO)ncc2C(=O)NCc2ncccn2)cc1Cl (stereo not given) | inactive
14 | COc1ccc(S(=O)(=O)N(C)C[C@@H]2OCCCC[C@@H](C)Oc3ccc(NC(=O)CCC(F)(F)F)cc3C(=O)N([C@H](C)CO)C[C@H]2C)cc1 | inactive
15 | C[C@@H]1CN([C@@H](C)CO)C(=O)c2cc(C#C[C@@H](C)O)cnc2O[C@@H]1CN(C)C(=O)CN1CCOCC1 | inactive
16 | Cn1c(=O)n2n(c1=O)[C@H](C1CC1)C=C1CN3[C@@H]([C@H](Cc4ccccc4)OC(=O)[C@@H]3COC(=O)NCCCCCC(=O)NO)[C@@H]12 | inactive
17 | COCC(=O)N(C)C[C@@H]1Oc2cc(-c3ccc(OC)cc3)ccc2S(=O)(=O)N([C@@H](C)CO)C[C@H]1C | inactive
18 | O=P(O)(O)C(O)(Cn1ccnc1)P(=O)(O)O | inactive
19 | COc1c(O)cc(O)cc1O | inactive
20 | C[C@H]1CN([C@@H](C)CO)C(=O)c2cc(C#Cc3ccccn3)cnc2O[C@@H]1CN(C)C(=O)c1cnccn1 | inactive

Row | Structure (SMILES) | cytotoxicity call
21 | COCC#Cc1ccc2c(c1)O[C@H](CN(C)S(C)(=O)=O)[C@H](C)CN([C@@H](C)CO)S2(=O)=O | inactive
22 | O=C(CN1CCOCC1)NCC[C@@H]1CC[C@H](NC(=O)c2ccccc2F)[C@@H](CO)O1 | inactive
23 | CN1CCN(C(=O)C[C@H]2C=C[C@@H](NC(=O)Nc3ccccc3F)[C@H](CO)O2)CC1 | inactive
24 | COc1ccc(S(=O)(=O)Nc2ccc3c(c2)C(=O)N([C@@H](C)CO)C[C@@H](C)[C@H](CN(C)C(=O)Nc2c(C)noc2C)OCCCC[C@H](C)O3)cc1 | inactive
25 | N#Cc1cccc2ccsc12 | inactive
26 | C[C@@H]1CCCCO[C@@H](CN(C)S(=O)(=O)c2ccccc2)[C@@H](C)CN([C@H](C)CO)C(=O)c2cc(NC(=O)Nc3cccc4ccccc34)ccc2O1 | inactive
27 | COc1ccc(S(=O)(=O)N(C)C[C@@H]2Oc3ccc(N(C)C)cc3CC(=O)N([C@H](C)CO)C[C@@H]2C)cc1 | active
28 | C[C@H]1CN([C@@H](C)CO)C(=O)Cc2cc(NS(=O)(=O)c3ccccc3)ccc2O[C@H]1CN(C)Cc1ccc(Oc2ccccc2)cc1 | inactive
29 | C[C@H]1CN([C@@H](C)CO)C(=O)c2cccc(NC(=O)c3cnccn3)c2O[C@@H]1CN(C)C(=O)Nc1ccccc1 | inactive
30 | N#C/C(=C\c1ccc(C(F)(F)F)cc1)c1c[nH]c2ccccc12 | inactive
31 | Cc1ccc(S(=O)(=O)Nc2ccc3c(c2)C(=O)N([C@H](C)CO)C[C@H](C)[C@@H](CN(C)S(C)(=O)=O)O3)cc1 | inactive
32 | Cc1ccccc1S(=O)(=O)N1C[C@@H](O)COC[C@@H]2O[C@H](CC(=O)N3CCC(Cc4ccccc4)CC3)CC[C@H]21 | inactive
33 | C[C@H]1CN([C@@H](C)CO)C(=O)Cc2cc(NC(=O)CCCCCC(=O)Nc3ccccc3N)ccc2O[C@H]1CN(C)Cc1ccc(Cl)c(Cl)c1 | inactive
34 | CC1=NCCN1C(=O)[C@@H](N)CC(C)C | inactive
35 | C[C@@H]1CN([C@H](C)CO)C(=O)c2cc(NS(=O)(=O)c3cn(C)cn3)ccc2O[C@@H](C)CCCCO[C@@H]1CN(C)Cc1ccc(C(F)(F)F)cc1 | inactive
36 | C[C@@H]1CCCCO[C@@H](CN(C)C(=O)CCC(F)(F)F)[C@@H](C)CN([C@@H](C)CO)C(=O)c2cc(NC(=O)NC3CCCCC3)ccc2O1 | inactive
37 | C[C@@H]1CN([C@@H](C)CO)C(=O)Cc2cc(NC(=O)Cc3ccccc3)ccc2O[C@H]1CN(C)Cc1ccc(Oc2ccccc2)cc1 | inactive
38 | C[C@H]1CN([C@@H](C)CO)S(=O)(=O)c2ccc(C#Cc3cccnc3)cc2O[C@@H]1CN(C)CC1CCOCC1 | inactive
39 | C[C@@H]1CCCCO[C@H](CN(C)C(=O)C2CCCCC2)[C@@H](C)CN([C@H](C)CO)C(=O)c2cc(NC(=O)CCCCCC(=O)Nc3ccccc3N)ccc2O1 | inactive
40 | C[C@@H]1CN([C@@H](C)CO)C(=O)c2cccc(NS(=O)(=O)c3cn(C)cn3)c2O[C@@H]1CN(C)C(=O)Nc1ccc2c(c1)OCO2 | inactive
